According to PMC4336329 (PLoS ONE, 2015):
Screen size: about 310,000 compounds; about 14,000 (4.5%) showed an effect of 50% or more. Effects have a minus sign here. Some of the results follow.

These compounds were tested against human ether-à-go-go-related gene (hERG) potassium channel (human, UniProt Q12809) (assay: primary screen, population patch clamp on CHO cells stably expressing hERG).
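Note: peak tail current of the secondary pulse compared with the same well before compound.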

human ether-à-go-go-related gene (hERG) potassium channel, sequence (Q12809 whole entry, looked up): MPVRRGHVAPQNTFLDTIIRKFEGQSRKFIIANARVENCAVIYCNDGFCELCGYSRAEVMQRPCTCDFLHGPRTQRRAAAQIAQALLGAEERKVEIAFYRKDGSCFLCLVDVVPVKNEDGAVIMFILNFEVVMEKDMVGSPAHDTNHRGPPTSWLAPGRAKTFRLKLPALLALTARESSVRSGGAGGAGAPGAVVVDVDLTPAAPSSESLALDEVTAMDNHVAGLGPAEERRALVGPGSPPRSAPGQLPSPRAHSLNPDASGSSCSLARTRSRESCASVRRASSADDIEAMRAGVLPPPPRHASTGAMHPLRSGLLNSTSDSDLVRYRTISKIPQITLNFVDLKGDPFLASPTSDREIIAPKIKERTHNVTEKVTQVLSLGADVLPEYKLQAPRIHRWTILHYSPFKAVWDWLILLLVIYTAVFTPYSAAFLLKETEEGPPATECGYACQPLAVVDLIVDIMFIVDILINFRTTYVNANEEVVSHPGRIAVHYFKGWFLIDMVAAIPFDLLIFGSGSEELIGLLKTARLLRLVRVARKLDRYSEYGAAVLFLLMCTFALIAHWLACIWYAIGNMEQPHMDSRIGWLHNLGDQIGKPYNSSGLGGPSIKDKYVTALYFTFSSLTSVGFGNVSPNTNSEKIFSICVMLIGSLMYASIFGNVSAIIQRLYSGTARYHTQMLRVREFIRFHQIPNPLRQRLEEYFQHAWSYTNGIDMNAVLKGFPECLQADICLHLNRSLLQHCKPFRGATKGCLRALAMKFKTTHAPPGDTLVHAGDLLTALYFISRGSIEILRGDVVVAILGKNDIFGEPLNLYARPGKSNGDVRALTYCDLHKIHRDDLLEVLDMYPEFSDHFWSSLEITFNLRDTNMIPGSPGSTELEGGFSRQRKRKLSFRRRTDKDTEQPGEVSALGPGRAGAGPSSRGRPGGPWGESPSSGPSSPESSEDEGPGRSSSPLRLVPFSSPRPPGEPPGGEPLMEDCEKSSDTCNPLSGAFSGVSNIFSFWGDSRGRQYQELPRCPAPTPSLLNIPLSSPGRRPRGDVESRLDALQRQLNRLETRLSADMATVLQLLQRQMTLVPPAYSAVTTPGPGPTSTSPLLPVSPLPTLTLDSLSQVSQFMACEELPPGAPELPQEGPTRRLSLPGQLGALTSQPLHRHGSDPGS

| Structure (SMILES) | hERG current change (%, negative = inhibition) at 10uM [%] |
| --- | --- |
| O=C(CSc1ccccc1C(=O)NCc1ccccc1)NC1CCCCCCC1 | -8.1 |
| COc1ccc(NC(C)=O)cc1NC(=O)CSc1nnc(-c2ccccc2)n1N | 13.6 |
| Cc1ccc(C2CC(c3cccc(Br)c3)Nc3nnnn32)cc1 (centres unmarked) | -7.07 |
| CN(C)CC(O)COc1cccc(OCC(O)CN(C)C)c1.Cl (centres unmarked) | 11.8 |
| CCc1cc(CNC(=O)C2CCC(=O)N(Cc3cccc(F)c3)C2)on1 (centres unmarked) | 2.18 |
| CCOC(=O)c1sc(N)c(C#N)c1COC(=O)CNC(=O)c1ccccc1 | -1.8 |
| COC(=O)CN(c1ccc(F)cc1)S(=O)(=O)c1ccccc1 | 4.48 |
| O=C(Nc1ccc(Br)cc1)c1cccc(N2C(=O)C3C4CCC(C4)C3C2=O)c1 (centres unmarked) | -9.13 |
| COc1ccccc1N1CCN(C(=O)CNS(=O)(=O)c2ccc(Br)s2)CC1 | -13.6 |
| O=C(Cn1ncc2ccccc21)N1CCc2ccccc21 | -8.94 |
| CCCCNC(=O)CSc1nc2cc3c(cc2c(=O)n1CCCC(=O)NCCc1ccc(OC)c(OC)c1)OCO3 | 1.71 |
| CN1CCN(c2ccc(-c3cccc(NC(=O)COc4ccc(Cl)cc4)c3)nn2)CC1 | -50.7 |
| CC(C)(C)NC(=O)Cn1c(SCC(=O)Nc2nccs2)nc2ccccc21 | 4.51 |
| S=c1[nH]nc(-c2ccco2)n1/N=C/c1cccc(Cl)c1Cl | 13.8 |
| COC(=O)c1cccc(C(=O)N2CCCC(CNC(=O)c3ccccc3Cl)C2)c1 (centres unmarked) | 16.8 |
| CCCCOCCCNC(=O)CN1C(=O)c2ccccc2C1=O | 9.01 |
| O=C1C2C3c4ccccc4C(c4ccccc43)C2c2nc3ccccc3n21 (centres unmarked) | 8.73 |
| CCCNC(=O)c1cc(C)no1 | 12.6 |
| CCOC(=O)NC(Nc1ccc(OC)cc1)(C(F)(F)F)C(F)(F)F | 17.9 |

| Structure (SMILES) | hERG current change (%, negative = inhibition) at 10uM [%] |
| --- | --- |
| C=CCN1C(=O)C2(/C(=C(\O)c3ccc4c(c3)OCCO4)C(=O)C(=O)N2CCCOC)c2ccccc21 (centres unmarked) | 8.1 |
| COC(=O)c1cccc(Nc2nc(-c3ccncc3)nc3ccccc23)c1 | 28.5 |
| O=C(c1nnc(-c2ccncc2)o1)c1ccccc1Cl | -3.04 |
| N#Cc1cc([N+](=O)[O-])ccc1NCCc1ccccn1 | -18.4 |
| COc1ccccc1-c1nnn(C/C(N)=N/O)n1 | 18.5 |
| O=C(C1CCC1)N1CCC(c2nc3c(nnn3Cc3c(F)cccc3Cl)c(=O)[nH]2)CC1 | 1.4 |
| Cc1ccc(Cl)cc1N1CCN(S(=O)(=O)c2ccc3c(c2)CC(=O)N3C)CC1 | -3.65 |
| CCOC(=O)CNc1nc(Cl)nc(Nc2ccc(OC)cc2OC)n1 | 19.2 |
| CCOC(=O)c1sc(SC)c2c1CCCC2=O | -5.11 |
| Cc1cc(O)c(C2(O)C(=O)Nc3cc(Br)ccc32)cc1C (centres unmarked) | 23.3 |
| CCCn1c(-c2ccc(C(=O)OC)cc2)nc2c1c(=O)[nH]c(=O)n2Cc1ccccc1 | 1.15 |
| CC(=O)c1ccc(NC(=O)C2=CC(c3ccc4c(c3)OCO4)=NS(=O)(=O)N2C)cc1 | -20.5 |
| Cc1ccccc1C(=O)c1cccn1CC(=O)NCc1ccc(F)cc1 | 15.4 |
| COC(=O)[C@@]12CCCN1[C@H](c1ccc(-c3ccc(OC)cc3)c(OC)c1)[C@@H]1C(=O)N(C)C(=O)[C@@H]12.O=C(O)C(F)(F)F | -9.37 |
| Cc1cnc(C(=O)N2CCN(c3ccc(C(F)(F)F)cn3)CC2)cn1 | -13.4 |
| CCOc1ccc(C(CC(=O)O)NC(=O)Cc2ccc(Cl)cc2)cc1 (centres unmarked) | 11.8 |
| O=C(Oc1cccnc1)c1ccc([N+](=O)[O-])cc1 | -10.6 |
| COc1cccc(N2CC(C(=O)Nc3nnc(SCC(=O)NCC4CCCO4)s3)CC2=O)c1 (centres unmarked) | 17.5 |
| CC(C)(C)c1ccc(-c2nc(C#N)c(NCCCn3ccnc3)o2)cc1 | -0.856 |

| Structure (SMILES) | hERG current change (%, negative = inhibition) at 10uM [%] |
| --- | --- |
| CCN1CCN(C(=O)CN(c2ccc(F)c(Cl)c2)S(C)(=O)=O)CC1 | 24.5 |
| Cc1csc(N2CCCC2c2nc3cc(Cl)c(N4CCCCC4)cc3n2CCCO)n1 (centres unmarked) | -39.2 |
| CC(=O)c1c(C)nn(-c2ccccc2)c1C | 15.1 |
| Br.N=C(N)SCc1nc2ccccn2c1Br | -11.2 |
| Cc1ccc2cc(C#N)c(N3CCN(C)CC3)nc2c1 | 2.75 |
| CCCCCNCc1ccc(Br)cc1.Cl | -33.3 |
| S=c1[nH]c(-c2ccccc2)cn1/N=C/c1cccnc1 | 12.8 |
| Cc1cc(C(=O)NC(C)C2CC2)c(Cl)cc1Cl (centres unmarked) | 18.3 |
| CCc1cc(=O)[nH]c(SCC(=O)Nc2cc(C)on2)n1 | -4.55 |
| COc1cc(C)c(S(=O)(=O)n2c([N+](=O)[O-])cnc2C)cc1C | 2.74 |
| COc1cc2c(cc1OC)C(C1C(=O)CCCC1=O)N(C(=O)CCl)CC2 (centres unmarked) | 14.1 |
| CC(=O)Nc1ccc(N2Cc3ccccc3C2)cc1 | 6.18 |
| N#C/C(C(=S)Nc1ccccc1)=C1/NN=C(N2CCOCC2)N1c1ccccc1 | 25.6 |
| Cl.OC(CC#CCN1CCCCCC1)(c1ccccc1)C1CCCC1 (centres unmarked) | -17.7 |
| CC(C)(C)c1ccc(OCCC(=O)Nc2ccc(N3CCOCC3)cc2N2CCOCC2)cc1 | -45.7 |
| O=C(c1ccc(-c2nnc(-c3ccccc3)o2)cc1)N1CCCCCC1 | 12.5 |
| CCOc1ccc(CN(C)CC(=O)Nc2cccc3ccccc23)cc1OC.O=C(O)C(=O)O | -16.5 |
| CCn1nc(C)c(NC(=O)/C=C/c2cnn(C)c2)c1C | -9.47 |
